Our source for the binding values is paper PMC2518271.

Protein sequences, listed by entry. Tags and fused reporters are not part of them.
UniProt P46821: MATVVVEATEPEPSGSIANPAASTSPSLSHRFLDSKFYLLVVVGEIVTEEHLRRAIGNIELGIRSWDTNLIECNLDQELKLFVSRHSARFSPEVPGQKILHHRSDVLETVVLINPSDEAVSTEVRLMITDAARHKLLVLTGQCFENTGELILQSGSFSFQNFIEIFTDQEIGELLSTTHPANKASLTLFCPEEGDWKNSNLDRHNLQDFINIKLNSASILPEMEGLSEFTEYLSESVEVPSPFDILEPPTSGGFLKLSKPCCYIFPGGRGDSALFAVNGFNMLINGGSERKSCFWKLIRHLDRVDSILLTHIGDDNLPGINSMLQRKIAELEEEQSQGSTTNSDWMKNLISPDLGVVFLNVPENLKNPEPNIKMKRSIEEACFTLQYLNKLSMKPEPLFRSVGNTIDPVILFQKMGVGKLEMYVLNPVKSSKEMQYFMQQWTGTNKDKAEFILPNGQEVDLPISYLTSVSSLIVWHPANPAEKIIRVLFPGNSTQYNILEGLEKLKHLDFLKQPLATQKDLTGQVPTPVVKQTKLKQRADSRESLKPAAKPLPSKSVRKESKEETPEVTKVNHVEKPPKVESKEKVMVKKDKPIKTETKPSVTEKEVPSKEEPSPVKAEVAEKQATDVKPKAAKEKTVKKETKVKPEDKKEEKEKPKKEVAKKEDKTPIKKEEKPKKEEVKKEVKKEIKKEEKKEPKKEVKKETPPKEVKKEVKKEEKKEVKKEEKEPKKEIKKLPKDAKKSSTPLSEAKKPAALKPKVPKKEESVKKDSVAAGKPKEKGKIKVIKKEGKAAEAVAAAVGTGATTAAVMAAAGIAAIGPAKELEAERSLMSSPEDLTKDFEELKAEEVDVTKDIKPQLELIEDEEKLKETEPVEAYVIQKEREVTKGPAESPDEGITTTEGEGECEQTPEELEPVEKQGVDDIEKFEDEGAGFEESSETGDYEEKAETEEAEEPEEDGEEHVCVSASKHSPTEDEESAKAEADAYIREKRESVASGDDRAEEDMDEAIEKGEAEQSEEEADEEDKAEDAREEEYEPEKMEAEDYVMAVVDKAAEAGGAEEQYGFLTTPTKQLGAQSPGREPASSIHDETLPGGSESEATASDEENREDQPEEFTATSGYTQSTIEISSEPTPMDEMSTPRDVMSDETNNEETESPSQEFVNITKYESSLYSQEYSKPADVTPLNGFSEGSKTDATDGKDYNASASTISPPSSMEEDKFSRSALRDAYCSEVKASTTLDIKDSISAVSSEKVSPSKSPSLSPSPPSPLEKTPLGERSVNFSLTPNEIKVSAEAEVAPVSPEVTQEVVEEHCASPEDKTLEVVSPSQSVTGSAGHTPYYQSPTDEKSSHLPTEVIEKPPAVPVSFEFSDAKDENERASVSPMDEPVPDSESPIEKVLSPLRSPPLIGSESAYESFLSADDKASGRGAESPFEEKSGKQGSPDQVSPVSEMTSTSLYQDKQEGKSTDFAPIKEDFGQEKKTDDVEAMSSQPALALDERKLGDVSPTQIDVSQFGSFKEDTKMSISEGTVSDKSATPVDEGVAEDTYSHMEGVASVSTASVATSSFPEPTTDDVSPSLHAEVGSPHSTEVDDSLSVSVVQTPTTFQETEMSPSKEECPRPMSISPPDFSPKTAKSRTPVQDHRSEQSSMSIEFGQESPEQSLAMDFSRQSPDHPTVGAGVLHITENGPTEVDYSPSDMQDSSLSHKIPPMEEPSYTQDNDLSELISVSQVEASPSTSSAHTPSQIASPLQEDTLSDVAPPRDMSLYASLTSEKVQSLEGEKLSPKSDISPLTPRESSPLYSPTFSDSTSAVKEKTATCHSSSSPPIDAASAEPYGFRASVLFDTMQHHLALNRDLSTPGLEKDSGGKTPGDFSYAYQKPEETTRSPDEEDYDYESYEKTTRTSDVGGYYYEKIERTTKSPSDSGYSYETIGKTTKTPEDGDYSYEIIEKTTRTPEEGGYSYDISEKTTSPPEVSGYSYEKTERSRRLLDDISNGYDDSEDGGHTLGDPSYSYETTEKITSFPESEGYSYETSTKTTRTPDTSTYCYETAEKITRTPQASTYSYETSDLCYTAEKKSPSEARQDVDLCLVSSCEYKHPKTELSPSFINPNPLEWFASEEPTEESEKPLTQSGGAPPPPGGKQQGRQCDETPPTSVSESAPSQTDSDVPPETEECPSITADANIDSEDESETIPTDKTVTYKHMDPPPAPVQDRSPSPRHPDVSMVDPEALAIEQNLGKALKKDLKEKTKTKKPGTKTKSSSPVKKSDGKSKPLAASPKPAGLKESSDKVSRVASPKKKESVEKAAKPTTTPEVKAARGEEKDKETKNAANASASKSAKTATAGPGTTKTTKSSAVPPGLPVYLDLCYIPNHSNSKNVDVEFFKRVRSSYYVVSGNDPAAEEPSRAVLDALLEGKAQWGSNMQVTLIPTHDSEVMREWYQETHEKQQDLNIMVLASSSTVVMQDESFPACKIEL

These are yes or no findings as the source states them, for the method shown. Binding seen in cells or lysates may run through a third protein. Some binding calls cover weakened binding; strength is not graded here. Sequences can lack the tags named with a protein.

Experiment [1] concerns the target T1, hrGFP-tagged wild type NORE1A (UniProt Q8WWW0).
T1 sequence: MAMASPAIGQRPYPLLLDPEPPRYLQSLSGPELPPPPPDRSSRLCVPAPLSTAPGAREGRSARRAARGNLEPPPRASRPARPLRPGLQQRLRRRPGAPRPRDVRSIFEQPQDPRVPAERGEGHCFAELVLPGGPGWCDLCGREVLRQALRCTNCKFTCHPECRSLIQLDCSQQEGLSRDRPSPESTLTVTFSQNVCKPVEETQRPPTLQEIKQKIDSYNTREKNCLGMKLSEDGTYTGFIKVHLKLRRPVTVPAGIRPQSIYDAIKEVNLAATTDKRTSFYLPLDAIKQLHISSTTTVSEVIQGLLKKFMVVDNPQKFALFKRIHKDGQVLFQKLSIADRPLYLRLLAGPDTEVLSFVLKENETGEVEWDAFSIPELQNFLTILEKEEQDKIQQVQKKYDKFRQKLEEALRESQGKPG
The experiment in a line: co-IP; A549 cells infected with retrovirus coding for hrGFP-tagged NORE1A; cell extracts precipitated for NORE1A, precipitate probed with antibody against MAP1B.

For experiment [2], the target named is T2, FLAG-tagged full-length NORE1A (UniProt Q8WWW0).
T2 sequence: T1 sequence
The experiment in a line: co-IP; HEK293 cells transfected with FLAG-tagged NORE1A constructs; lysates precipitated for FLAG, precipitate probed with antibody against C19ORF5 and MAP1B.

Experiment [3] concerns the target T3, FLAG-tagged NORE1A effector domain (amino acids 191–363) (UniProt Q8WWW0).
T3 sequence: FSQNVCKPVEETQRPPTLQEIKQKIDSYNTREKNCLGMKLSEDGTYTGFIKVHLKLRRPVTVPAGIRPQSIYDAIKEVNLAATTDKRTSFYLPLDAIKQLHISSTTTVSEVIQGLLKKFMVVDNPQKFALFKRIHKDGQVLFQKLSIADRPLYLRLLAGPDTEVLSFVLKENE
The experiment is described as above.

The target of experiment [4] is T4, FLAG-tagged NORE1A C-terminal portion (amino acids 250–416) (UniProt Q8WWW0).
T4 sequence: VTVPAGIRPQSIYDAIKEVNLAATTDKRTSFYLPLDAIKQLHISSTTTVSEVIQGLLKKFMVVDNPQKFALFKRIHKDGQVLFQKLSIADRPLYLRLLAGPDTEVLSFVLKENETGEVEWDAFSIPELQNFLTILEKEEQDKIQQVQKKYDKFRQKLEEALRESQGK
The description is as above.

Experiment [5] deals with T5, FLAG-tagged NORE1A N-terminal portion (amino acids 1–268) (UniProt Q8WWW0).
T5 sequence: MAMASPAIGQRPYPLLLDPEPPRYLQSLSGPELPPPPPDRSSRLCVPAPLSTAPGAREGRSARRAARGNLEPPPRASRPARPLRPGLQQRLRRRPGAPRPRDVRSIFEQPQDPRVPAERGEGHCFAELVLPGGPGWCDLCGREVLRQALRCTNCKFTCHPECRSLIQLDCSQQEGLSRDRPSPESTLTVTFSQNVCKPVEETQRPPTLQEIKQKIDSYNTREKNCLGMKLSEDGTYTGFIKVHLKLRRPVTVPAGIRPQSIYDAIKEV
The experiment is described as above.

For the substance “Microtubule-Associated Protein 1B (MAP1B), endogenous (from UniProt P46821 1-2468)”, the binding entry in experiment [1] is reported as “binds”; in experiment [2], “binds”; in experiment [3] it was “binds”; in experiment [4] it was “no binding”; in experiment [5], “no binding”.
